Structures are written as SMILES. Counter-ions that a name gives are not always drawn. Some of the results follow. Single values are uncertain, as repeats are few or missing.

The subject of this test is Ov4Carbo. Kind of test: log2 surviving fraction (library drug vs vehicle, or drug + carboplatin vs carboplatin alone; relative to plate median); ovarian cancer lines: OVCAR4 is platinum-sensitive and Ov4Carbo platinum-resistant; higher = more cell survival. As to conditions: library drug concentration 10 µM; 7 days; carboplatin co-treatment 0 µM.
As to `CC(C)c1nc(N(C)S(C)(=O)=O)nc(-c2ccc(F)cc2)c1/C=C/[C@@H](O)C[C@@H](O)CC(=O)O` [Rosuvastatin calcium (Crestor)], the log2 surviving fraction was -0.494.

As to `C[N+]1(C)[C@@H]2C[C@@H](OC(=O)[C@H](CO)c3ccccc3)C[C@H]1[C@@H]1O[C@@H]12` [Methscopolamine (Pamine)], the log2 surviving fraction came to 1.44.

For the compound `CCC1=C(C)CN(C(=O)NCCc2ccc(S(=O)(=O)NC(=O)N[C@H]3CC[C@H](C)CC3)cc2)C1=O` [Glimepiride], the log2 surviving fraction worked out at 0.0912.

As to `CCOC(=O)CCC(=O)O[C@H]1[C@H](O[C@@H]2[C@@H](C)[C@H](O[C@H]3C[C@@](C)(OC)[C@@H](O)[C@H](C)O3)[C@@H](C)C(=O)O[C@H](CC)[C@@](C)(O)[C@H](O)[C@@H](C)C(=O)[C@H](C)C[C@@]2(C)O)O[C@H](C)C[C@@H]1N(C)C` [Erythromycin Ethylsuccinate], the log2 surviving fraction was -0.246.

`CC[C@H]1OC(=O)[C@H](C)[C@@H](O[C@H]2C[C@@](C)(OC)[C@@H](O)[C@H](C)O2)[C@H](C)[C@@H](O[C@@H]2O[C@H](C)C[C@H](N(C)C)[C@H]2O)[C@](C)(O)C[C@@H](C)CN(C)[C@H](C)[C@@H](O)[C@]1(C)O` [Azithromycin Dihydrate]: the log2 surviving fraction is -0.18.

With `CNC(=O)Oc1ccc2c(c1)[C@]1(C)CCN(C)[C@@H]1N2C` [Physostigmine Salicylate], the log2 surviving fraction was determined as 0.75.

Consider `C[N+](C)(C)CCO.[Cl-]` [Choline Chloride], for which the log2 surviving fraction is -1.18.

For `CN1[C@@H]2CC[C@H]1C[C@@H](OC(=O)c1c[nH]c3ccccc13)C2` [Tropisetron], the log2 surviving fraction was 0.0169.

In the case of `NCCC(O)(P(=O)(O)O)P(=O)(O)O` [Pamidronate Disodium], the log2 surviving fraction was found to be 1.21.

`CC(C)CN(C[C@@H](O)[C@H](Cc1ccccc1)NC(=O)O[C@H]1CCOC1)S(=O)(=O)c1ccc(N)cc1` [Amprenavir (Agenerase)]: the log2 surviving fraction worked out at 1.02.

For `CN1C2CCCC1CC(NC(=O)c1nn(C)c3ccccc13)C2` (centres undefined) [Granisetron HCl], the log2 surviving fraction is -0.0202.

Turning to `CC1(C)[C@H](C(=O)O)N2C(=O)C[C@H]2S1(=O)=O` [Sulbactam], the log2 surviving fraction worked out at 0.279.

Turning to `CNC[C@H](O)c1ccc(O)c(O)c1` [Epinephrine bitartrate (Adrenalinium)], the log2 surviving fraction was -0.159.

Turning to `Cc1c(-c2ccc(O)cc2)n(Cc2ccc(OCCN3CCCCCC3)cc2)c2ccc(O)cc12` [Bazedoxifene HCl], the log2 surviving fraction was -6.47.

Take `O=C(C1CCCCC1)N1CC(=O)N2CCc3ccccc3C2C1` (centres undefined) [Praziquantel (Biltricide)]: the log2 surviving fraction worked out at 0.667.

Turning to `CCCc1nc2c(C)cc(-c3nc4ccccc4n3C)cc2n1Cc1ccc(-c2ccccc2C(=O)O)cc1` [Telmisartan (Micardis)], the log2 surviving fraction was -0.362.

`CCCCC(CC)CNC(=N)NC(=N)NCCCCCCNC(=N)NC(=N)NCC(CC)CCCC` (centres undefined) [Alexidine HCl]: the log2 surviving fraction was -8.36.

In the case of `CCCNC(C)C(=O)Nc1ccccc1C` (centres undefined) [Prilocaine], the log2 surviving fraction amounted to 0.179.

With `CC(=O)OCC(=O)[C@@]1(O)CC[C@H]2[C@@H]3CCC4=CC(=O)CC[C@]4(C)[C@H]3C(=O)C[C@@]21C` [Cortisone acetate (Cortone)], the log2 surviving fraction is -0.747.

For the compound `COc1ccc2[nH]c([S@@+]([O-])Cc3ncc(C)c(OC)c3C)nc2c1` [Esomeprazole magnesium (Nexium)], the log2 surviving fraction was -0.0175.

For the compound `CC1=C(/C=C/C(C)=C/C=C/C(C)=C/C=C/C=C(C)/C=C/C=C(C)/C=C/C2=C(C)CCCC2(C)C)C(C)(C)CCC1` [Beta Carotene], the log2 surviving fraction came out at 0.112.

Consider `CSc1nc2cc(Cl)c(Oc3cccc(Cl)c3Cl)cc2[nH]1` [Triclabendazole], for which the log2 surviving fraction was -0.124.

On to `O=C(O)c1cc(=O)c2ccccc2o1` [Chromocarb], for which the log2 surviving fraction was found to be 0.4.

In the case of `Nc1nc(F)nc2c1ncn2[C@@H]1O[C@H](CO)[C@@H](O)[C@@H]1O` [Fludarabine (Fludara)], the log2 surviving fraction was -2.38.

`COCCCOc1cc(C[C@@H](C[C@H](N)[C@@H](O)C[C@H](C(=O)NCC(C)(C)C(N)=O)C(C)C)C(C)C)ccc1OC` [Aliskiren hemifumarate]: the log2 surviving fraction was -0.736.

As for `CC[C@@H]1C(=O)OC[C@@H]1Cc1cncn1C` [Pilocarpine HCl], the log2 surviving fraction was determined as 1.37.

Turning to `COc1ccc([C@@H]2Sc3ccccc3N(CCN(C)C)C(=O)[C@@H]2OC(C)=O)cc1` [Diltiazem HCl (Tiazac)], the log2 surviving fraction is -0.361.

Regarding `O=c1n(CCCN2CCN(c3cccc(Cl)c3)CC2)nc2ccccn12` [Trazodone hydrochloride (Desyrel)], the log2 surviving fraction worked out at 0.464.

For the compound `C[N+]1(C)[C@@H]2C[C@@H](OC(=O)C(O)(c3cccs3)c3cccs3)C[C@H]1[C@@H]1O[C@@H]12` [Tiotropium Bromide hydrate], the log2 surviving fraction is -0.236.
